According to PubChem BioAssay AID588855 (National Center for Advancing Translational Sciences (NCATS), 2011):
Screen size: about 410,000 compounds; about 5,000 (1.2%) were called active. Inconclusive results, whose numbers are uncertain, are shown with a selection of clear calls. Calls come from the whole dose curve; as a rule, active = well fitted inhibition curve with a large enough effect; inconclusive = small, poorly fitted or top-dose-only effect; inactive = no such curve, though single readings can be large or run the other way. Potencies of inconclusive entries are doubtful fits and often do not repeat. The source holds several records for some structures; these can differ, active in one and inactive in another.
Potency is the fitted concentration of half-maximal effect; tags give direction and shape of the fitted curve.

Experiment: qHTS for Inhibitors of TGF-b; note: nearly all actives have a fitted effect of over 65% in size
Conditions: HepG2 CAGA-GFP TGF-b/SMAD3 reporter, GFP fluorescence, 18 h, TGF-beta stimulated, 500 pg/mL final; series mostly up to 46.1 µM
How it was run: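 Using HEPG2 CAGA-GFP reporter cells at 1000 cells/well, we pinned test compounds, stimulated with recombinant TGF-beta (500 pg/mL final) and measured total well GFP after 18 h.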
With `CCCCC(CC)CNC(=O)Cc1ccc(-n2c(=O)[nH]c3ccccc3c2=O)cc1` (configuration not stated) the Potency was inconclusive: 17.8 µM [inhibitor, single point].
In the case of `O=C(O)C1CCC(N2C(=O)c3cccc([N+](=O)[O-])c3C2=O)CC1` (configuration not stated), the Potency is reported as inconclusive: 35.5 µM [inhibitor, single point].
With `CC(=O)NC(c1cccs1)c1cc([N+](=O)[O-])c2cccnc2c1O` (configuration not stated) the Potency was inconclusive: 22.4 µM [inhibitor, single point].
In the case of `O=C(Nc1ccc(S(=O)(=O)N2CCOCC2)cc1)c1ccc(CN2CCc3ccccc3C2)cc1`, the Potency is reported as “inactive”.
With `COc1cc(OC)c(OC)cc1CNCc1ccco1` the Potency was inconclusive: 14.1 µM [inhibitor, partial curve, poor fit].
For `CC(=O)N1c2ccc(S(=O)(=O)NCCC(=O)Nc3ccc(C)c(Cl)c3)cc2CC1C` (configuration not stated), the Potency was inconclusive: 22.4 µM [inhibitor, partial curve, poor fit].
For `Cc1cccc2nc(-c3ccccn3)c(Nc3ccc(F)cc3)n12`, the Potency was inconclusive: 12.6 µM [inhibitor, partial curve, poor fit].
With `Cc1cc(C)c2nc(N3C(=O)C(O)=C(C(=O)c4ccco4)C3c3ccco3)sc2c1` (configuration not stated) the Potency was “inactive”.
For `Cc1ccc(C(=O)O)cc1S(=O)(=O)N1CCOCC1`, the Potency was “inactive”.
With `S=C(NCc1ccccc1)NC1CCCc2ccccc21` (configuration not stated) the Potency was inconclusive: 0.891 µM [inhibitor, full curve].
With `Cc1ccc(NS(=O)(=O)c2ccc(NC(=O)CN(c3cc([N+](=O)[O-])ccc3C)S(C)(=O)=O)cc2)c(C)c1` the Potency was inconclusive: 35.5 µM [inhibitor, single point].
In the case of `Fc1ccccc1CN1CCCN(C(=S)Nc2cccc(Cl)c2)C1`, the Potency is reported as inconclusive: 25.1 µM [inhibitor, single point].
With `NC(=O)C1=C[C@@H](c2csc3ccccc23)C[C@@H](OCc2ccc(CO)cc2)O1` the Potency was inconclusive: 14.1 µM [inhibitor, partial curve, poor fit].
For `O=C(CN1CCN(Cc2ccccc2)CC1)Nc1ccc(N2CCOCC2)cc1`, the Potency was “inactive”.
In the case of `O=C(CN1CCN(c2ccccc2O)CC1)Nc1cc(S(=O)(=O)N2CCCC2)ccc1Cl`, the Potency is reported as inconclusive: 35.5 µM [inhibitor, single point].
In the case of `O=C(/C=C/c1cccnc1)c1ccc(O)cc1`, the Potency is reported as inconclusive: 11.2 µM [inhibitor, single point].
With `CCN1CCCC1CNC(=O)c1cc([N+](=O)[O-])c(N(C)C)cc1OC` (configuration not stated) the Potency was “inactive”.
In the case of `CCCC(C(=O)Nc1ccc2c(C)cc(=O)oc2c1)c1ccccc1` (configuration not stated), the Potency is reported as “inactive”.
With `Cc1cc(C)cc(N2C(=O)CSC23C(=O)N(Cc2c(F)cccc2Cl)c2ccccc23)c1` (configuration not stated) the Potency was inconclusive: 35.5 µM [inhibitor, single point].
For `CN(Cc1cccc(Cl)c1Cl)C(=O)c1ccccc1SCC(=O)N1CCCC1`, the Potency was inconclusive: 35.5 µM [inhibitor, single point].
With `COc1ccc(-c2n[nH]nc2C2=CC(=O)CC(C)(C)C2)cc1` the Potency was “inactive”.
In the case of `CC(=O)Nc1ccccc1-c1nc2ccccc2n(CC(=O)Nc2cccc(C)c2C)c1=O`, the Potency is reported as “inactive”.
With `Cc1ccc2nc(SCc3nc(-c4ccc(Cl)cc4)no3)[nH]c2c1` the Potency was inconclusive: 17.8 µM [inhibitor, single point].
In the case of `CC(CNC(=O)c1cnn(-c2ccc(F)cc2)c1-n1cccc1)c1ccccc1` (configuration not stated), the Potency is reported as active: 10 µM.
In the case of `CC[C@]12c3[nH]c4ccccc4c3CCN1C(=O)C(CC(=O)NCc1cccc(C(F)(F)F)c1)C[C@@H]2C(=O)N1CCN(C(=O)C2CC2)CC1` (some centres not stated), the Potency is reported as inconclusive: 25.1 µM [inhibitor, single point].
With `CC1OC23CCCCC2C(C#N)(C(=N)O3)C1(C#N)C#N` (configuration not stated) the Potency was “inactive”.
In the case of `O=C(CSc1nc(=O)n(CCN2CCOCC2)c2c1CCC2)Nc1ccc(Cl)c(Cl)c1`, the Potency is reported as inconclusive: 0.562 µM [inhibitor, full curve].
With `Cc1ccc(C23CC4CC(CC(CN)(C4)C2)C3)cc1` the Potency was inconclusive: 25.1 µM [inhibitor, single point].
In the case of `Cc1cccc(N2CCN(C(=O)C3CCN(S(=O)(=O)Cc4ccccc4)CC3)CC2)c1C`, the Potency is reported as inconclusive: 22.4 µM [inhibitor, single point].
For `COc1ccccc1NC(=S)NNC(=O)c1ccc(O)cc1`, the Potency was “inactive”.
In the case of `CC(C)c1ccc2[nH]c(O)c(N=NC(=O)c3ccc(CSc4nncn4C)cc3)c2c1`, the Potency is reported as “inactive”.
In the case of `COc1ccc(Cl)cc1NC(=O)CN1CCC(n2nnc3cc(F)ccc32)CC1`, the Potency is reported as inconclusive: 28.2 µM [inhibitor, single point].
In the case of `CN(c1ccccc1)S(=O)(=O)c1ccc(NC(=O)C2CC2)cc1`, the Potency is reported as “inactive”.
For `Cc1nn(C)c(Cl)c1C(=O)NC(C(=O)O)c1ccccc1` (configuration not stated), the Potency was “inactive”.
With `CC1(C)CC(NC(=S)NCc2ccco2)CC(C)(C)N1` the Potency was inconclusive: 0.562 µM [inhibitor, full curve, poor fit].
With `CCn1cc(C(=O)Nc2ncccc2O)c(=O)c2cc(F)c(N3CCN(C(=O)c4ccco4)CC3)cc21` the Potency was “inactive”.
In the case of `COc1ccccc1NC(=O)CSc1ncc(CO)n1Cc1ccc(F)cc1`, the Potency is reported as inconclusive: 14.1 µM [inhibitor, partial curve, poor fit].
With `CCC(Sc1nc(C)cc(=O)[nH]1)C(=O)Nc1nnc(C)s1` (configuration not stated) the Potency was inconclusive: 11.2 µM [inhibitor, single point].
For `Cc1cccc2c1-c1sc(C(=O)NCCCN3CCC(C)CC3)cc1CO2`, the Potency was inconclusive: 15.8 µM [inhibitor, single point].
With `CCn1c(=O)c(C(=O)CN2CCCc3ccccc32)c(N)n(Cc2ccccc2)c1=O` the Potency was active: 11.2 µM.
With `Cc1ccc[n+](CC(=O)/C=C2\N(C)c3ccccc3C2(C)C)c1` the Potency was inconclusive: 15.8 µM [inhibitor, partial curve, poor fit].
For `CC[C@]12c3[nH]c4ccc(Cl)cc4c3CCN1C(=O)[C@@H](CC(=O)NCCCOC)C[C@@H]2C(=O)N1CCN(C(=O)C2CC2)CC1`, the Potency was inconclusive: 35.5 µM [inhibitor, single point].
With `FC(F)Oc1ccc(-c2csc(=Nc3cccnc3)n2CC2CCCO2)cc1` (configuration not stated) the Potency was inconclusive: 7.08 µM [inhibitor, partial curve].
With `COc1ccccc1C(=O)Nc1nnc(S(=O)(=O)N2CCCCC2)s1` the Potency was inconclusive: 0.562 µM [inhibitor, full curve].
With `O=C(CSc1nnc(-c2ccc(F)cc2)c2ccccc12)Nc1cccc(Cl)c1` the Potency was “inactive”.
In the case of `COc1ccc(NC(=O)CSCC(=O)Oc2c(OC)cccc2OC)cc1`, the Potency is reported as “inactive”.
For `Cc1n[nH]c(=S)n1/N=C/c1ccccc1OCc1ccc(Cl)cc1Cl`, the Potency was “inactive”.
For `CCN(C(=O)CN1C(=O)/C(=C/c2ccccc2)SC1=S)C1CCS(=O)(=O)C1` (configuration not stated), the Potency was “inactive”.
With `Cc1ccc(-c2nc(CSCC(=O)NCc3cccnc3)c(C)o2)cc1` the Potency was “inactive”.
With `Cn1c(C(=O)NCCc2ccccc2)cc2cc(S(=O)(=O)N3CCCCC3)ccc21` the Potency was inconclusive: 25.1 µM [inhibitor, single point].
In the case of `COc1ccc(CN2C(=O)c3ccccc3C2=O)cc1`, the Potency is reported as “inactive”.
For `COc1ccc(C(C)C)cc1-c1cc(C(=O)NCc2cccc(C(F)(F)F)c2)[nH]n1`, the Potency was inconclusive: 15.8 µM [inhibitor, single point].
In the case of `O=C(CN(C(=O)Cn1nnc(-c2ccccc2F)n1)c1cnc2ccccc2c1)NCC1CCCO1` (configuration not stated), the Potency is reported as inconclusive: 2 µM [inhibitor, full curve, poor fit].
For `C=CCN(c1ccccc1)S(=O)(=O)c1cccc(C(=O)Nc2nc3ccccc3[nH]2)c1`, the Potency was inconclusive: 12.6 µM [inhibitor, partial curve, poor fit].
For `FC(F)(F)c1cccc(OCCN2CCN(Cc3ccccc3)CC2)c1`, the Potency was “inactive”.
With `COc1ccc(CN2CCC2(C)C(=O)Nc2cnc3ccccc3c2)c2ccccc12` (configuration not stated) the Potency was inconclusive: 28.2 µM [inhibitor, single point].
In the case of `Cc1ccc2nc(C(F)(F)F)c(C#N)c(N)c2c1`, the Potency is reported as inconclusive: 11.2 µM [inhibitor, partial curve, poor fit].
For `CCOC(=O)c1[nH]c2c(c1C)C(=O)CC(c1ccco1)C2` (configuration not stated), the Potency was inconclusive: 4.47 µM [inhibitor, full curve].
In the case of `CC(=O)Nc1ccc(S(=O)(=O)Nc2nc3ccccc3nc2Nc2ccc(O)cc2)cc1`, the Potency is reported as inconclusive: 22.4 µM [inhibitor, single point].
For `COCCn1c(C)cc(O)c(C(c2ccc(OC)cc2)N2CCCCC2)c1=O` (configuration not stated), the Potency was “inactive”.
In the case of `COc1ccccc1-c1nnc2n1N=C(c1ccc(O)c(O)c1)CS2`, the Potency is reported as inconclusive: 0.631 µM [inhibitor, full curve].
For `OCCNc1nc(Nc2ccc(Br)cc2)nc2ccccc12`, the Potency was inconclusive: 35.5 µM [inhibitor, single point].
In the case of `CC(=O)C1=C(c2cccc([N+](=O)[O-])c2)N(C(C)=O)n2c(C)nnc2S1`, the Potency is reported as active: 11.2 µM.
In the case of `C/C(=N\NC(=O)c1nn(C)c(C)c1Br)c1ccc(NC(=O)c2ccccc2F)cc1`, the Potency is reported as inconclusive: 0.631 µM [inhibitor, full curve].
With `COc1ccc([C@H]2CC(=O)C=C(c3ccc(OC)c(F)c3)C2)cc1` the Potency was inconclusive: 0.631 µM [inhibitor, full curve, poor fit].
With `COc1ccc2c(c1)c(CC(=O)Nc1cccc(S(N)(=O)=O)c1)c(C)n2C(=O)c1ccc(Cl)cc1` the Potency was active: 15.8 µM.
In the case of `O=C(c1cccs1)N1C[C@@H](O)[C@H](n2cc(-c3ccc(F)cc3)nn2)C[C@@H]1c1ccc(Cl)cc1`, the Potency is reported as inconclusive: 12.6 µM [inhibitor, single point].
